Experimental data published in PubChem BioAssay (NCATS).
Where “and” joins values, the source holds several entries; their conditions need not be identical. Identical values can stand only once. The shares of active, inactive and inconclusive entries below differ from those in the screen. For part of these data: A potency beside an inconclusive call is a rough fit, not a confirmed value. Calls of active or inactive are those of the source. Unless noted, calls follow the shape of the dose curve; as a rule, active = well fitted curve in the direction sought with a large enough effect; inconclusive = small, poorly fitted or top-dose-only effect, or another doubt; inactive = no such curve, though single readings can be large; an effect the other way counts as inactive or inconclusive.

Columns and labels:
[1] = molecular target: Muscarinic acetylcholine receptor M1 (Rattus norvegicus) (UniProt P08482); assay: qHTS Assay for Antagonists of Acetylcholine Muscarinic M1 Receptor: Kinetic Measurement of Intracellular Calcium Response (AID 943); also: potency is read from the fitted curve at half-maximal effect; nearly all actives have a fitted effect of over 75% in size
Summary of the method: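 Antagonism is measured as inhibition of the carbachol-evoked calcium rise in CHO cells transfected with rat M1. Cells are dye-loaded, exposed to compound for 10 min, then stimulated with 100 nM carbachol (EC80).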

[2] = qHTS for differential inhibitors of proliferation of Plasmodium falciparum line Dd2 (AID 1882); details: Potency: Plasmodium falciparum Dd2 proliferation inhibition; also: nearly all actives have a fitted effect of over 65% in size; also: potency is read from the fitted curve at half-maximal effect;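 as to activity change, negative = inhibition: plate controls were DMSO vehicle for no effect and 0.29 µM artemisinin for full effect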
Summary of the method: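 SYBR Green DNA fluorescence (ex 485, em 535 nm) after overnight lysis quantifies parasite growth; compound exposure lasted 72 h at 37 C on infected red cells at 2.5% hematocrit, 0.3% parasitemia (final). Artemisinin 0.29 uM and vehicle wells define normalization.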

[3] = system: Zika virus NS2B-NS3 protease (unlinked complex); assay: Confirmatory screen GU AMC qHTS for Zika virus inhibitors (AID 1347153); also: nearly all actives have a fitted effect of over 70% in size;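 as to activity, negative = inhibition: percent inhibition with 0% = no inhibitor control and 100% = no enzyme control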;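 as to potency: enzyme at 25 nM with substrate at 10 µM below its Km of 18.3 µM; potency is read from the fitted curve at half-maximal effect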
Summary of the method: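 Compounds were preincubated 15 min at room temperature with 25 nM noncovalent NS2B-NS3 protease at pH 8.0; AMC substrate added at 10 microM and 15-min fluorescence gain (340/450 nm) converted to percent inhibition, fitted 4-parameter.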

[4] = ZIKV-mCherry secondary qHTS for Zika virus inhibitors (AID 1347158); also: potency is read from the fitted curve at half-maximal effect; as to activity change, negative = inhibition: top concentration of the series differs between compounds
Summary of the method: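 Compounds were tested in Vero monkey kidney cells infected with recombinant mCherry-expressing Zika virus at MOI 1 for 48-72 h at 37 °C. Fixed cells were nuclear-stained and imaged, and infection rate was taken as the fraction of mCherry-positive cells.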

[5] = molecular target: Rap guanine nucleotide exchange factor 3 (Homo sapiens) (UniProt O95398); assay: Confirmatory qHTS for antagonist of cAMP-regulated guanine nucleotide exchange factor 3 (EPAC1) (AID 1645880); also: nearly all actives have a fitted effect of over 55% in size; also: potency is read from the fitted curve at half-maximal effect;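 as to activity, negative = inhibition: plate controls were DMSO only for no effect and full effect of the ATA control for full effect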
Summary of the method: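 Released BODIPY-GDP fluoresces less than Rap1-bound BODIPY-GDP; the signal is followed at 480/540 nm at 5-min intervals over 30 min, after 5 min at room temperature. Reactions contain 100 nM EPAC1, 250 nM RAP1B-BODIPY-GDP and 50 uM GDP; results are normalized to ATA and DMSO.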

DIV30 = assay: qHTS profiling for inhibitors of Plasmodium falciparum proliferation (AID 504749); also: nearly all actives have a fitted effect of over 60% in size; also: potency is read from the fitted curve at half-maximal effect;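 as to activity, negative = inhibition: 0% = DMSO vehicle and full inhibition = artemisinin control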; details: P. falciparum in erythrocytes, SYBR Green DNA, 72 h; series mostly up to 28.7 µM
Summary of the method: (§1)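 Each compound contacts P. falciparum-infected red blood cells for 72 h at 37 C; lysis buffer (Tris, EDTA, saponin, Triton X, SYBR Green I) is added and fluorescence measured next morning; values normalized to controls.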

[6] = molecular target: Cytochrome P450 3A4 (Homo sapiens) (UniProt P08684); assay: qHTS Assay for Inhibitors and Substrates of Cytochrome P450 3A4 (AID 884); details: recombinant CYP3A4, Luciferin-PPXE luminescence; activity change, negative = inhibition: at 57.1 µM (top of the series); also: % is scaled to controls: 0 for no effect and ±100 for the full control effect; nearly all actives have a fitted effect of over 50% in size
Summary of the method: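 Luminescent readout of luciferin produced by CYP3A4 (20 nM) dealkylation of Luciferin-PPXE, 25 uM (its KM). NADPH-driven reaction ran 60 min at RT after 10 min compound preincubation; data scaled to 57 uM ketoconazole as 100% inhibition.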

[7] = qHTS for differential inhibitors of proliferation of Plasmodium falciparum line 3D7 (AID 1876); also: potency is read from the fitted curve at half-maximal effect;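 as to activity, negative = inhibition: parasite growth measured after three days of culture; 0% = vehicle wells and -100% = reference inhibitor wells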
[8] = qHTS Assay for Identification of Small Molecule Agonists for Hypoxia Response Element Signaling Pathway (AID 914; active = well fitted activation curve with a large enough effect in the signal ratio, with a control signal flat, not every such curve was filed as active; inconclusive = small, poorly fitted or top-dose-only effect, or effect the other way, or a change in a side signal; the % refers to the signal ratio; also: potency is read from the fitted curve at half-maximal effect; as to activation: top concentration of the series differs between compounds; % of control where 0% means no effect); details: ME-180 (cervical carcinoma) HRE-bla reporter, beta-lactamase ratio, CoCl2, 17 h; activation: stronger effect = higher value
Summary of the method: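 AC50 values come from titration-series %Activity, taken as the 460/530nm ratio of CCF4 fluorescence (excitation 405nm). CellSensor HRE-bla ME-180 cells were treated 17 hours at 37 C with compound plus an EC50 level of CoCl2.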

[9] = Quantitative High-Throughput drug screen in 47 multiple myeloma cell lines against the NCATS MIPE library collection: KMS27_JCRB cell viability assay (AID 1918970); also: nearly all actives have a fitted effect of over 30% in size; also: potency is read from the fitted curve at half-maximal effect
Summary of the method: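 Each line is seeded at 500 cells per well and treated with library compounds for 48 hours under 37 °C, 5% CO2. CellTiter-Glo is then added for 5 min at room temperature before median relative luminescence is recorded.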

SC27B = assay: qHTS profiling for inhibitors of Plasmodium falciparum proliferation (AID 504749); also: nearly all actives have a fitted effect of over 60% in size; also: potency is read from the fitted curve at half-maximal effect;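 as to activity, negative = inhibition: 0% = DMSO vehicle and full inhibition = artemisinin control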; details: P. falciparum in erythrocytes, SYBR Green DNA, 72 h; series mostly up to 28.7 µM
Summary of the method: as §1

[10] = Quantitative High-Throughput drug screen in 47 multiple myeloma cell lines against the NCATS MIPE library collection: KMS11_JCRBsus cell viability assay (AID 1919873);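 also: 100% = DMSO-only wells and 0% = media-only wells without cells; nearly all actives have a fitted effect of over 50% in size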
Summary of the method: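 Cells were exposed to library compounds for 48 hours, after which ATP was measured by CellTiter-Glo. Signal was taken as median relative luminescence units.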

[11] = S16 Schwann cell PMP22 intronic element beta-lactamase assay (AID 624044; calls by dose curve;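 also: 0% = DMSO and -100% = potassium clavulanate positive control; nearly all actives have a fitted effect of over 15% in size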); details: S16 rat Schwann cells, PMP22 element beta-lactamase FRET, 24 h; ratio activity, negative = inhibition: at 38.3 µM (top of the series) unless noted
Summary of the method: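 Beta-lactamase reporter under a PMP22 intronic regulatory element in stable S16 rat Schwann cells; 24 h compound exposure. 460 nm blue signal normalized between DMSO (0%) and potassium clavulanate, with 535 nm FRET tracking viability; curves classed by r2 and response.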

CP211 = assay: qHTS profiling for inhibitors of Plasmodium falciparum proliferation (AID 504749); also: nearly all actives have a fitted effect of over 60% in size; also: potency is read from the fitted curve at half-maximal effect;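 as to activity, negative = inhibition: 0% = DMSO vehicle and full inhibition = artemisinin control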; details: P. falciparum in erythrocytes, SYBR Green DNA, 72 h; series mostly up to 28.7 µM
Summary of the method: as §1

[12] = qHTS for Inhibitors of ATXN expression: Validation of Cytotoxic Assay (AID 588349); also: % is scaled to controls: 0 for no effect and ±100 for the full control effect
Summary of the method: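 Titrated compounds are added to cultured HEK293 cells, which are then held at 37 degrees C for 72 hr; loss of intracellular ATP, measured with CellTiter Glo, indicates toxicity.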

[13] = system: Zika virus NS2B-NS3 protease (linked construct); assay: Confirmatory screen NINDS AMC qHTS for Zika virus inhibitors (AID 1347152); also: nearly all actives have a fitted effect of over 70% in size; also: potency is read from the fitted curve at half-maximal effect;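 as to activity change, negative = inhibition: AMC fluorescence gain from cleaved Bz-Nle-KRR-AMC substrate over 15 min; top concentration of the series differs between compounds; 0% = no-inhibitor control and -100% = no-enzyme control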
Summary of the method: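 Concentration-response confirmation used the NINDS linked protease (NS2B hydrophilic domain joined to NS3 protease domain), 1 nM, with a 15-min compound preincubation. Substrate, Nle-KRR-AMC at 10 microM, was read by UV fluorescence before and after 15 min.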

[14] = Tertiary RLuc qRT-PCR qHTS assay for Zika virus inhibitors (AID 1347169); also: top concentration of the series differs between compounds; % is scaled to controls: 0 for no effect and ±100 for the full control effect; nearly all actives have a fitted effect of over 55% in size
Summary of the method: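 Inhibition of ZIKV-RLuc replication in Vero cells, read as Renilla luminescence 1-1.5 hrs after live-cell substrate addition, following 48-72 hrs infection at MOI 1-2 in presence of compound.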

CP191 = assay: qHTS profiling for inhibitors of Plasmodium falciparum proliferation (AID 504749); also: nearly all actives have a fitted effect of over 60% in size; also: potency is read from the fitted curve at half-maximal effect;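 as to activity, negative = inhibition: 0% = DMSO vehicle and full inhibition = artemisinin control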; details: P. falciparum in erythrocytes, SYBR Green DNA, 72 h; series mostly up to 28.7 µM
Summary of the method: as §1
Tags tell the direction and shape of the fitted curve or compound fluorescence and quenching.

UniProt O95398, sequence (O95398 whole entry, looked up): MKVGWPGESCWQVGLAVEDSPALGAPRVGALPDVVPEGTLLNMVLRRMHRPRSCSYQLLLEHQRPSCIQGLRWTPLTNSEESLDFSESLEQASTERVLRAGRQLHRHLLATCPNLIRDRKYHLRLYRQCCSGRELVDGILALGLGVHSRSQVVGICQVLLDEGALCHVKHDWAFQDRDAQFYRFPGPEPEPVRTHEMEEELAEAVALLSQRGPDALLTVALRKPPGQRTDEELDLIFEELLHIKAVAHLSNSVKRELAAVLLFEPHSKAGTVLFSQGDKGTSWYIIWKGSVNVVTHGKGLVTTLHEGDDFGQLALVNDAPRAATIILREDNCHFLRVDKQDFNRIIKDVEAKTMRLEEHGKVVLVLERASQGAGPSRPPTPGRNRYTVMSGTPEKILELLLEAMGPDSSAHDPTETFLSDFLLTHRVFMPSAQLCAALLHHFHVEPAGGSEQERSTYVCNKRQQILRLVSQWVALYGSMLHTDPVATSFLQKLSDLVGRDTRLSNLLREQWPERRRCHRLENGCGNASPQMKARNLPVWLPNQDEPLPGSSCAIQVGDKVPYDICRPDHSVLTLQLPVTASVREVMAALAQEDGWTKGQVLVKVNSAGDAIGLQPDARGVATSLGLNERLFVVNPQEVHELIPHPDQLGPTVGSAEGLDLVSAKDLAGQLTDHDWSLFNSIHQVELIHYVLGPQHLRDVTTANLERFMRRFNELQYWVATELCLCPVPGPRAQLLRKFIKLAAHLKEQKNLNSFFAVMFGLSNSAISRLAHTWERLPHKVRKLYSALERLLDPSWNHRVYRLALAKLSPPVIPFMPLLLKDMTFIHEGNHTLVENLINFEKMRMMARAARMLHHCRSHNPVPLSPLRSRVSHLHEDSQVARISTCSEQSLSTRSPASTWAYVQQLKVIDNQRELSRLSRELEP
UniProt P08482, sequence (P08482 whole entry, looked up): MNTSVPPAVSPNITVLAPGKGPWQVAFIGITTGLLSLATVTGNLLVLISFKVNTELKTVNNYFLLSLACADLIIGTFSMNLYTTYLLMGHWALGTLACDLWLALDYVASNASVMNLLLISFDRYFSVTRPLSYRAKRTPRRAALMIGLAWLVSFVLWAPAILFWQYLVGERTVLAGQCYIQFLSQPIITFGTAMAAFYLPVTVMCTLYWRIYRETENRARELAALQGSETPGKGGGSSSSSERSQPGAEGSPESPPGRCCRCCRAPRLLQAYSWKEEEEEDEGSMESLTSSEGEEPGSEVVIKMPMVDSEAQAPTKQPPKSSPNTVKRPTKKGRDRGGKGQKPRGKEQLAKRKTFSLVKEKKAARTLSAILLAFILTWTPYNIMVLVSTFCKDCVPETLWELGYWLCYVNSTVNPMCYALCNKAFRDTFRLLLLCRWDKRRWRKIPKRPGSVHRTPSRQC
UniProt P08684, sequence (P08684 whole entry, looked up): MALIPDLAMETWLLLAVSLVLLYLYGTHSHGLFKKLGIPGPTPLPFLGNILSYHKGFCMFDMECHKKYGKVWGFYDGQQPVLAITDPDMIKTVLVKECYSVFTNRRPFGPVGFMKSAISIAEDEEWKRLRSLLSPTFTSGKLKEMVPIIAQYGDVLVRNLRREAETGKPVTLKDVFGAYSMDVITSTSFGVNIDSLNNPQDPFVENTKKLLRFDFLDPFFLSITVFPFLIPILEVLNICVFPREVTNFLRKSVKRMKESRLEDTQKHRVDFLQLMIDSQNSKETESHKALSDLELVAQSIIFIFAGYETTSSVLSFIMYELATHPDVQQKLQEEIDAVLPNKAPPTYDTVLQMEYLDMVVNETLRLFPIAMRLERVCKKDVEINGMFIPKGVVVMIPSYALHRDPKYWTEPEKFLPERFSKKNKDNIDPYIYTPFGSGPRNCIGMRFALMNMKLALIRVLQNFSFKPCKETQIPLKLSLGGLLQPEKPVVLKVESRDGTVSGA

CCCCNC(=O)NS(=O)(=O)c1ccc(C)cc1
Potency [1]: inconclusive: 0.0282 µM [inhibitor, full curve, poor fit]
Potency [2]: inactive

CCC(CC)(CC(=O)Nc1cccc(/C=C/c2nc(C3CCC3)cs2)c1)C(=O)O
Potency [3]: inconclusive: 24.1 µM [inhibitor, partial curve]
Potency [4]: inactive

c1ccc(-c2ccc(C(c3ccccc3)n3ccnc3)cc2)cc1 (stereo unspecified)
Potency [5]: inactive and inconclusive: 84.9 µM [inhibitor, partial curve, poor fit]
Potency (DIV30): active: 12 µM

CN(C)CCOC(=O)C(c1ccccc1)C1(O)CCCC1 (stereo unspecified)
Potency [6]: inactive

CN(C)CCOC(=O)COc1ccc(Cl)cc1
Potency [7]: inactive
Potency [2]: inactive

C[C@]12CC[C@@H]3c4ccc(O)cc4CC[C@H]3[C@@H]1CCC2=O
activation [8]: inconclusive: -24.3%
Potency [7]: inconclusive: 7.94 µM [inhibitor, partial curve]
Potency [2]: inconclusive: 12.6 µM [inhibitor, single point]

COc1ccc([C@@H]2CNC(=O)C2)cc1OC1CCCC1
Potency [9]: active: 26.4 µM
Potency (SC27B): inactive

C[C@H]1C[C@H]2[C@@H]3CCC4=CC(=O)C=C[C@]4(C)[C@@H]3C(=O)C[C@]2(C)[C@@]1(O)C(=O)CO
Potency [9]: inactive
Potency [10]: inactive

CC(Cc1cccc(C(F)(F)F)c1)NCCOC(=O)c1ccccc1 (stereo unspecified)
Potency [11]: inactive
Potency [5]: inconclusive: 19.8 µM [inhibitor, partial curve, poor fit]

O=S(c1cc(Cl)cc(Cl)c1O)c1cc(Cl)cc(Cl)c1O
ratio activity, negative = inhibition [11]: inconclusive: -0.159%
Potency (CP211): inconclusive: 84.9 µM [activator]
Potency (DIV30): inconclusive: 0.0757 µM [activator]
Potency (SC27B): inconclusive: 0.0004 µM [inhibitor, full curve, poor fit]

CC(=O)OC(C)C[N+](C)(C)C (stereo unspecified)
Potency [12]: inactive

CCC(=O)O[C@H]1[C@H](O[C@@H]2[C@@H](C)[C@H](O[C@H]3C[C@@](C)(OC)[C@@H](O)[C@H](C)O3)[C@@H](C)C(=O)O[C@H](CC)[C@@](C)(O)[C@H](O)[C@@H](C)C(=O)[C@H](C)C[C@@]2(C)O)O[C@H](C)C[C@@H]1N(C)C
Potency [13]: active: 13.6 µM
Potency [3]: active: 19.2 µM
Potency [4]: inconclusive: 17.8 µM [inhibitor, full curve, poor fit]
Potency [14]: inactive

O=C1NCC2(CCN(CCc3ccccc3)CC2)O1
Potency [1]: inconclusive: 5.62 µM [inhibitor, partial curve, poor fit]

CC1=C(CC(=O)O)c2cc(F)ccc2/C1=C\c1ccc(S(C)(=O)=O)cc1
Potency [8]: inconclusive: 15.8 µM [inhibitor, partial curve]

CN(C)CCN(Cc1ccccc1)c1ccccn1
Potency (DIV30): inconclusive: 4.78 µM [inhibitor, partial curve, poor fit]

CN1[C@@H]2CCC[C@@H]1CC(NC(=O)c1nn(C)c3ccccc13)C2 (stereo partly specified)
Potency [9]: inactive
Potency [10]: inactive

CCCCCCCC(=O)OCC(O)CO (stereo unspecified)
Potency (CP191): inactive

Cc1cc(-n2nc3ccc(Cl)cc3n2)c(O)c(C(C)(C)C)c1
Potency (CP191): inconclusive: 1.12 µM [inhibitor, single point]

N[C@@H](Cc1cc(I)c(O)c(I)c1)C(=O)O
Potency [13]: inactive
Potency [3]: inactive
